Source: US20240279318A1 (NANJING LEGEND BIOTECH, published 2024)

Target: T1, AFP158/HLA-A*02:01 complex (human)
T1 construct: biotinylated on the BSP by BirA for ELISA and panning; also called biotinylated AFP158/HLA-A*02:01 complex; Bio-AFP158
Test: SPR, scFv-mIgG2aFc from supernatant captured, complex as analyte

| Kd | koff | kon | Binder |
| --- | --- | --- | --- |
| 560 nM | 0.41 s⁻¹ | 730000 M⁻¹ s⁻¹ | AS190259 VL1VH1g1 scFv-mIgG2aFc (Fc fusion, not shown: a dimerising Fc or GST; small tags and cut ends) scFv: SSELTQDPAVSVALGQTVRITCQGGGYYVNWYQQKPGQAPVLVIYLNTNRPSGIPDRFSGSSSGNTASLTITGAQAEDEADYYCQSADSSGNSAVFGGGTKLTVLGGGGSGGGGSGGGGS[left out - about 100 residues]AASGYGGSWWGDATLDAWGQGTLVTVSS |
| 340 nM | 0.31 s⁻¹ | 900000 M⁻¹ s⁻¹ | AS190259 VL2VH1g1 scFv-mIgG2aFc (Fc fusion, not shown: a dimerising Fc or GST; small tags and cut ends) scFv: SSELTQDPAVSVALGQTVTITCQGGGYYVNWYQQKPGQAPVLVIYLNTNRPSGIPDRFSGSSSGNTASLTITGAQAEDEAAYYCQSADSSGNSAVFGGGTKLTVLGGGGSGGGGSGGGGS[left out - about 100 residues]AASGYGGSWWGDATLDAWGQGTLVTVSS |
